Source: the supplement of paper PMC4967469
The IC50 comes from the fitted curve, where viability falls to half of the control; where the fit passes the top or lowest dose, that dose stands as a limit. For AUC the same curve is integrated over the 256-fold range of doses and scaled to a fraction; the more sensitive the line, the further below 1. For part of these data: Where the top dose is marked as inferred, it is not printed in the source and was worked back from the curve model.

What was measured:
Assay in all cases: Viability of human cancer cell lines after 72 h of drug (GDSC screen)
CCT018159 = compound: CCc1cc(-c2n[nH]c(C)c2-c2ccc3c(c2)OCCO3)c(O)cc1O [CCT018159]; settings: top dose 10 µM; top dose inferred
Experimental: (§1)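 Human cancer cell lines in 384-well plates, medium with 10% serum, drug for 72 h over a 256-fold dose range (nine 2-fold or five 4-fold steps up to the top dose). Adherent lines were fixed and stained with the nucleic acid dye Syto60, suspension lines read with resazurin; signal relative to control wells, capped at 0 and 100%. One two-parameter sigmoid per drug and line, fitted in a mixed model over all curves with the slope shared within a line.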

Dimethyloxalylglycine = compound: COC(=O)CNC(=O)C(=O)OC [Dimethyloxalylglycine]; settings: top dose 4000 µM; top dose inferred
Experimental: as §1

UNC1215 = compound: O=C(c1ccc(C(=O)N2CCC(N3CCCC3)CC2)c(Nc2ccccc2)c1)N1CCC(N2CCCC2)CC1 [UNC1215]; settings: top dose 1 µM; top dose inferred
Experimental: as §1

17-AAG = compound: C=CCNC1=C2C[C@@H](C)C[C@H](OC)[C@H](O)[C@@H](C)/C=C(\C)[C@H](OC(N)=O)[C@@H](OC)/C=C\C=C(/C)C(=O)NC(=CC1=O)C2=O [17-AAG]; settings: top dose 1 µM
Experimental: as §1

Doxorubicin = compound: COc1cccc2c1C(=O)c1c(O)c3c(c(O)c1C2=O)C[C@@](O)(C(=O)CO)C[C@@H]3O[C@H]1C[C@H](N)[C@H](O)[C@H](C)O1 [Doxorubicin]; settings: top dose 1.024 µM
Experimental: as §1

TG101348 = compound: Cc1cnc(Nc2ccc(OCCN3CCCC3)cc2)nc1Nc1cccc(S(=O)(=O)NC(C)(C)C)c1 [TG101348]; settings: top dose 10.24 µM
Experimental: as §1

VX-11e = compound: Cc1cnc(Nc2ccc(F)cc2Cl)nc1-c1c[nH]c(C(=O)N[C@H](CO)c2cccc(Cl)c2)c1 [VX-11e]; settings: top dose 5.12 µM; top dose inferred
Experimental: as §1

BIX02189 = compound: CN(C)Cc1cccc(N=C(c2ccccc2)c2c(O)[nH]c3cc(C(=O)N(C)C)ccc23)c1 [BIX02189]; settings: top dose 20 µM; top dose inferred
Experimental: as §1

OSI-027 = compound: COc1cccc2cc(-c3nc([C@H]4CC[C@H](C(=O)O)CC4)n4ncnc(N)c34)[nH]c12 [OSI-027]; settings: top dose 20 µM
Experimental: as §1

Vismodegib = compound: CS(=O)(=O)c1ccc(C(=O)Nc2ccc(Cl)c(-c3ccccn3)c2)c(Cl)c1 [Vismodegib]; settings: top dose 10 µM; top dose inferred
Experimental: as §1

| Cell Line | AUC (CCT018159) | IC50 (CCT018159) [µM] | AUC (Dimethyloxalylglycine) | IC50 (Dimethyloxalylglycine) [µM] | AUC (UNC1215) | IC50 (UNC1215) [µM] | AUC (17-AAG) | IC50 (17-AAG) [µM] | AUC (Doxorubicin) | IC50 (Doxorubicin) [µM] | AUC (TG101348) | IC50 (TG101348) [µM] | AUC (VX-11e) | IC50 (VX-11e) [µM] | AUC (BIX02189) | IC50 (BIX02189) [µM] | AUC (OSI-027) | IC50 (OSI-027) [µM] | AUC (Vismodegib) | IC50 (Vismodegib) [µM] |
| --- | --- | --- | --- | --- | --- | --- | --- | --- | --- | --- | --- | --- | --- | --- | --- | --- | --- | --- | --- | --- |
| NUGC-3 (stomach, adherent) | 0.838 | 7.98 | 0.759 | 1550 | 0.982 | > 1 | 0.571 | 0.1 | 0.452 | 0.0466 | 0.97 | > 10.2 | 0.965 | > 5.12 | 0.977 | > 20 | 0.846 | 17.4 |  |  |
| OAW-28 (ovary, adherent) | 0.959 | > 10 | 0.734 | 1420 | 0.98 | > 1 | 0.979 | > 1 | 0.666 | 0.211 | 0.849 | > 10.2 | 0.816 | 3.84 | 0.908 | > 20 | 0.733 | 7.02 |  |  |
| OMC-1 (cervix, adherent) |  |  | 0.484 | 226 | 0.986 | > 1 | 0.622 | 0.138 | 0.632 | 0.151 | 0.932 | > 10.2 | 0.959 | > 5.12 | 0.968 | > 20 | 0.543 | 1.65 | 0.988 | > 10 |
| OSC-19 (head and neck, adherent) | 0.83 | 6.61 | 0.403 | 134 | 0.975 | > 1 | 0.618 | 0.134 | 0.449 | 0.046 | 0.883 | > 10.2 | 0.964 | > 5.12 | 0.956 | > 20 | 0.851 | 16.2 |  |  |
| PANC-03-27 (pancreas, adherent) |  |  | 0.649 | 628 | 0.987 | > 1 | 0.6 | 0.115 | 0.355 | 0.0261 | 0.915 | > 10.2 | 0.921 | > 5.12 | 0.907 | > 20 | 0.499 | 1.24 | 0.987 | > 10 |
| PANC-10-05 (pancreas, adherent) | 0.944 | > 10 | 0.507 |  | 0.977 | > 1 | 0.767 | 0.479 | 0.542 | 0.0859 | 0.893 | > 10.2 | 0.871 | > 5.12 | 0.976 | > 20 | 0.382 | 0.54 |  |  |
| PFSK-1 (medulloblastoma, adherent) |  |  | 0.546 | 336 |  |  | 0.883 | > 1 | 0.752 | 0.357 | 0.808 | 5.71 | 0.982 | > 5.12 | 0.96 | > 20 | 0.431 | 0.799 | 0.977 | > 10 |
| RPMI-2650 (head and neck, adherent) |  |  | 0.527 | 299 | 0.983 | > 1 | 0.916 | > 1 | 0.298 | 0.0164 | 0.879 | > 10.2 | 0.963 | > 5.12 | 0.951 | > 20 | 0.451 | 0.909 | 0.974 | > 10 |
| SISO (cervix, adherent) |  |  | 0.436 | 168 | 0.987 | > 1 | 0.754 | 0.324 | 0.513 | 0.0694 | 0.89 | > 10.2 | 0.981 | > 5.12 | 0.984 | > 20 | 0.839 | 12.9 | 0.988 | > 10 |
| SKG-IIIa (cervix, adherent) |  |  | 0.497 | 245 | 0.967 | > 1 | 0.505 | 0.0646 | 0.718 | 0.331 | 0.981 | > 10.2 | 0.982 | > 5.12 | 0.98 | > 20 | 0.979 | > 20 | 0.98 | > 10 |
| SNU-182 (liver, adherent) |  |  | 0.438 | 168 | 0.979 | > 1 | 0.844 | 0.766 | 0.508 | 0.0675 | 0.771 | 4.1 | 0.984 | > 5.12 | 0.958 | > 20 | 0.783 | 8.82 | 0.969 | > 10 |
| SNU-423 (liver, adherent) |  |  | 0.466 | 198 | 0.98 | > 1 | 0.963 | > 1 | 0.524 | 0.0752 | 0.798 | 5.85 | 0.951 | > 5.12 | 0.928 | > 20 | 0.235 | 0.183 | 0.982 | > 10 |
| SW900 (lung squamous cell carcinoma, adherent) | 0.957 | > 10 | 0.787 | 2060 | 0.982 | > 1 | 0.822 | 0.714 | 0.636 | 0.163 | 0.899 | > 10.2 | 0.908 | > 5.12 | 0.952 | > 20 | 0.878 | > 20 |  |  |
| TCCSUP (bladder, adherent) | 0.896 | > 10 | 0.591 | 459 | 0.981 | > 1 | 0.506 | 0.065 | 0.803 | 0.595 | 0.932 | > 10.2 | 0.985 | > 5.12 | 0.981 | > 20 | 0.784 | 9.81 |  |  |
| U031 (kidney, adherent) | 0.815 | 5.73 | 0.539 | 321 | 0.979 | > 1 | 0.689 | 0.216 | 0.735 | 0.309 | 0.828 | 6.61 | 0.926 | > 5.12 | 0.982 | > 20 | 0.615 | 2.62 |  |  |
